Laboratory results from article PMC4336329 (PLoS ONE, 2015).
About 14,000 (4.5%) of roughly 310,000 compounds showed an effect of 50% or more. Effects have a minus sign here. The list shows a part of the results.

molecular target: human ether-à-go-go-related gene (hERG) potassium channel (human, UniProt Q12809); assay: primary screen, population patch clamp on CHO cells stably expressing hERG
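Further: peak tail current of the secondary pulse compared with the same well before compound.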

Sequence of human ether-à-go-go-related gene (hERG) potassium channel (Q12809 whole entry, looked up): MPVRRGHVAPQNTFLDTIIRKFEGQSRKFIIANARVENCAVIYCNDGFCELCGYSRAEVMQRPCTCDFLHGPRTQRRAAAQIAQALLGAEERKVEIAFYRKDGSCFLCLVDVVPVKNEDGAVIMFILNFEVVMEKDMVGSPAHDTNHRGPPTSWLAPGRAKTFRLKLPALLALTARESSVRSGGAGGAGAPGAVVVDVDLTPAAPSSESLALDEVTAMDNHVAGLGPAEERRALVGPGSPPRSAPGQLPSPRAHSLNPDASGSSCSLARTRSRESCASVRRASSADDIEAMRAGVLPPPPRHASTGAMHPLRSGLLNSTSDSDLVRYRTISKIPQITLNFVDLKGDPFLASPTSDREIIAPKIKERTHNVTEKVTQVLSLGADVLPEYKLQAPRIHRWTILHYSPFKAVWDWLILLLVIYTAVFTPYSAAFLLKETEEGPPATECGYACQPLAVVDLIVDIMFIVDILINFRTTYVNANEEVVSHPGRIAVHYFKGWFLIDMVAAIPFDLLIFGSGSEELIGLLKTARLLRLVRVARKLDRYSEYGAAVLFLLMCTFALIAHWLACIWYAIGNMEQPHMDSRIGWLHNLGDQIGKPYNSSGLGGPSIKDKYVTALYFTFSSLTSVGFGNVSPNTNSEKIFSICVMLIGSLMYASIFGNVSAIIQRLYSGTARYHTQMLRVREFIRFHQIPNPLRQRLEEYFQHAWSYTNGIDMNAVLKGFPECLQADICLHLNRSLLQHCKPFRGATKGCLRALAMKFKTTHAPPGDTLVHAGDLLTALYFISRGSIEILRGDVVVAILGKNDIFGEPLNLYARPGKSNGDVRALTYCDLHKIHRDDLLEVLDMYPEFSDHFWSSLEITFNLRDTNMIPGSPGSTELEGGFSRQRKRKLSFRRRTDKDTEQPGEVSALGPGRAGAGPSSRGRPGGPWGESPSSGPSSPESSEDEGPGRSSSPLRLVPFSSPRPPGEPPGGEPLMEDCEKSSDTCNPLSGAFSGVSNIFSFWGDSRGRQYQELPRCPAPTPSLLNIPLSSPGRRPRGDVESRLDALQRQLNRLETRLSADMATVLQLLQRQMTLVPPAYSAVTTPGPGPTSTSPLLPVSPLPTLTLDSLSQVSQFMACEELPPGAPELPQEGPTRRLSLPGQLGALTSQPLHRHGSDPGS

Compared with `COc1ccc(S(=O)(=O)NCC(c2cccs2)N2CCc3ccccc3C2)cc1` (stereo not shown), `Cl.OC(COc1c(F)cc(Br)cc1F)CN1CCc2ccccc2C1` (stereo not shown) is lower in “hERG current change (%, negative = inhibition) at 10uM” value: -46.1% for the first, -72.2% for the second.

Going from `Cn1c(CNC(=O)c2ccco2)nnc1SCC(=O)c1ccc(F)cc1` to `COC(=O)c1cccc(CSc2nnc(-c3ccco3)n2-c2ccccc2)c1`, the “hERG current change (%, negative = inhibition) at 10uM” value falls from -0.66% to -33.9%.

Going from `Cc1ccc(NC(=O)CCNC(=O)N2C[C@H]3C[C@@H](C2)c2cccc(=O)n2C3)c(C)c1` to `CCC(C(=O)OCC(=O)Nc1ccc(C)c(S(=O)(=O)N2CCOCC2)c1)c1ccccc1` (stereo not shown), the “hERG current change (%, negative = inhibition) at 10uM” value falls from 8.36% to -32.6%.

Going from `C=CCSc1nnc(NC(=O)c2cccc(S(=O)(=O)N(C)c3ccccc3)c2)s1` to `COc1ccccc1OCC(=O)Nc1cccc(N(C)S(C)(=O)=O)c1`, the “hERG current change (%, negative = inhibition) at 10uM” value falls from 0.621% to -26.1%.

First: O=C(CN1C(=O)C2CC=CCC2C1=O)Nc1nccs1 (stereo not shown)
Second: CCOc1ccc(N2C(=O)CC(N)C2=O)cc1 (stereo not shown)
The “hERG current change (%, negative = inhibition) at 10uM” value of the first is higher: 2.92% for the first, 1.65% for the second.

Going from `COc1ccc(-n2c(SCC(=O)Nc3cc(C)on3)nc3ccccc3c2=O)cc1Cl` to `CN(C)S(=O)(=O)c1ccc2oc(SCC(=O)Nc3ccccc3F)nc2c1`, the “hERG current change (%, negative = inhibition) at 10uM” value rises from 5.94% to 14.7%.

Going from `O=C(O)c1cccc(NS(=O)(=O)c2ccc(Oc3ccc(S(=O)(=O)Nc4cccc(C(=O)O)c4)cc3)cc2)c1` to `Nc1c(S(=O)(=O)[O-])cc(NC(=O)c2ccccc2)c2c1C(=O)c1ccccc1C2=O.[Na+]`, the “hERG current change (%, negative = inhibition) at 10uM” value falls from 20.3% to -8.77%.

Compared with `Cn1cc(Br)c(C(=O)N2CCN(c3cccc(Cl)c3)CC2)n1`, `Oc1c(Cl)cc(Cl)cc1C=Nc1ccccc1N1CCCC1` is lower in “hERG current change (%, negative = inhibition) at 10uM” value: -2.41% for the first, -4.38% for the second.

First: O=C(NC(=S)NNC(=O)[C@H]1C[C@@H]1c1ccccc1)c1ccc(F)cc1
Second: CCOC(=O)C1=NNC(C(=O)c2ccccc2)C1c1ccc(Cl)cc1 (stereo not shown)
The “hERG current change (%, negative = inhibition) at 10uM” value of the first is higher: 3.86% for the first, -18.3% for the second.

First: COc1ccc(CCn2c(-c3ccc(F)cc3)nc3c(c(=O)c4ccccc4n3C)c2=O)cc1OC
Second: CCOc1ccccc1NC(=O)CN(c1ccc(OC)cc1)S(=O)(=O)c1c(C)[nH]c(=O)[nH]c1=O
The “hERG current change (%, negative = inhibition) at 10uM” value of the first is lower: -24.8% for the first, 14.1% for the second.

Compared with `O=C(C1CCN(S(=O)(=O)N2CCCCC2)CC1)N1CCCCC1`, `N#Cc1sc2nc(N3CCCCC3)c3c(c2c1N)CCCC3` is lower in “hERG current change (%, negative = inhibition) at 10uM” value: -0.696% for the first, -3.56% for the second.

Compared with `CCOc1ccc(S(=O)(=O)NCC(=O)N(C)Cc2cccnc2)cc1`, `CCOC(=O)C1(Cc2ccc(OC)cc2)CCN(C(=O)Cc2cccnc2)CC1` is lower in “hERG current change (%, negative = inhibition) at 10uM” value: -2.05% for the first, -17.8% for the second.

Compared with `O=[N+]([O-])c1ccc(Nc2ccc(N3CCOCC3)cc2)c([N+](=O)[O-])c1`, `Cc1ccc(NC(=O)Nc2ccc(C(=O)N3CCOCC3)cc2)cc1` is lower in “hERG current change (%, negative = inhibition) at 10uM” value: 10% for the first, -5.28% for the second.

Compared with `CCC1(c2ccc(F)cc2)NC(=O)N(CC(=O)Nc2ccc(C)c(S(=O)(=O)N3CCOCC3)c2)C1=O` (stereo not shown), `Cc1cccc(-c2nnc(-c3cccc(NC(=O)Cc4cccs4)c3)o2)c1` is higher in “hERG current change (%, negative = inhibition) at 10uM” value: -1.48% for the first, 10.4% for the second.

Compared with `CCOC(=O)c1c(-c2ccccc2)oc2ccc(O)c(CN(C)C)c12`, `CC(=O)C1=C(C)Nc2ncnn2C1c1ccccc1OCc1ccccc1` (stereo not shown) is higher in “hERG current change (%, negative = inhibition) at 10uM” value: -40.2% for the first, -7.4% for the second.

Compared with `CC(C)(C)S(=O)(=O)c1cnc(N2CCCC2)nc1N`, `CC(C)(C)NS(=O)(=O)c1cc2c3c(c1)CCN3C(=O)CC2` is higher in “hERG current change (%, negative = inhibition) at 10uM” value: 5.53% for the first, 17.4% for the second.

Compared with `O=C(Nc1cccnc1Oc1ncnc2cc(Cl)ccc12)c1ccc(F)cc1`, `COc1ccccc1C(=O)NC(=O)Nc1cccc(Cl)c1` is lower in “hERG current change (%, negative = inhibition) at 10uM” value: 3% for the first, -0.649% for the second.

Going from `Oc1ccc2c(c1)C1CCCC1(N1CCOCC1)O2` (stereo not shown) to `Cl.Nc1ccc2nc(CN3CCOCC3)[nH]c2c1`, the “hERG current change (%, negative = inhibition) at 10uM” value rises from 3.8% to 10.6%.

First: O=C(O)c1ccc2c(=O)n3c(nc2c1)/C(=C/c1cccc(O)c1)CC3
Second: Cc1c(Nc2nc(-c3ccccc3)cs2)c(=O)n(-c2ccccc2)n1C
The “hERG current change (%, negative = inhibition) at 10uM” value of the first is higher: 8.17% for the first, -0.167% for the second.

Compared with `CC1CCCN(CC(=O)c2ccc(Cl)c(Cl)c2)C1` (stereo not shown), `O=C(Nc1nnc(SCc2ccc(F)cc2)s1)C1=COCCO1` is higher in “hERG current change (%, negative = inhibition) at 10uM” value: -4.92% for the first, 0.187% for the second.

Compared with `COc1ccc(Cc2c(O)[nH]c(=S)[nH]c2=O)cc1`, `CC(=O)Nc1ccc(OCC(O)Cn2nc(C)c(C(C)=O)c2C)cc1` (stereo not shown) is lower in “hERG current change (%, negative = inhibition) at 10uM” value: 13.8% for the first, -4.23% for the second.

For `S=c1[nH]nc(-c2ccc3c(c2)OCO3)n1-c1ccccc1`, the “hERG current change (%, negative = inhibition) at 10uM” value was 24.7%.
